Our source for the survival values is PubChem BioAssay AID463173 (ICCB-Longwood Screening Facility, Harvard Medical School, 2010).

About 4,300 (8.3%) of roughly 52,000 compounds were called active. No stated cut-off is given here; in the data, active means survival mostly below about 52% (no sharp cut-off); inactive means mostly above about 56%. Some of the results follow.

The experiment has as its system DeltatarO mutant. As to the kind of experiment: growth inhibition of S. aureus wild type versus tarO mutant, primary screen, teichoic acid synthesis inhibitors, RN4220, OD600 (AID 463173). The conditions noted are these: OD600, 18 h, hits give low values, screened at 18.75 µg/mL (by protocol).
Regarding `Cc1cc2c(c3oc(=O)c4ccccc4c13)CN(Cc1ccc(F)cc1)CO2`, the survival was inactive: 68%.
Take `O=C(Nc1cccc(Cl)c1)Nc1ccccc1OCc1cc(=O)n2ccccc2n1`: the survival was inactive: 70%.
To `Cc1nc2c(C(=O)N(C)Cc3ccccc3)c[nH]n2c(=O)c1Cc1ccc(Cl)cc1` belongs inactive: 88%; to `Cc1ccc(Cl)cc1N1CCN(C(=O)c2ccc3c(c2)N(Cc2ccccc2F)C(=O)c2ccccc2S3(=O)=O)CC1`, inactive: 79%; to `O=C(NCC(c1ccccc1)c1ccccc1)c1nn(-c2ccccc2Cl)nc1CO`, inactive: 73%.
Regarding `CCOc1ccccc1NC(=O)c1sc(-n2nc(C)c(CCC(C)C)c2C)nc1C`, the survival was inactive: 69%.
Under `O=C(CN1CCOCC1)N1CCN(c2ccccc2)CC1` stands inactive: 84%.
As for `CCOc1ccc(C(C)N)cc1` (centres undefined), the survival was inactive: 67%.
Under `CCCCOc1ccc(S(=O)(=O)N2CCN(c3ccccc3OCC)CC2)cc1` stands inactive: 113%; under `COc1ccc(Cl)cc1NC(=O)CN(C)S(=O)(=O)c1ccc(Br)s1`, inactive: 99%; under `C=CCNc1nc(C(C)C)nc2c1nnn2Cc1ccccc1`, inactive: 86%.
Regarding `CCc1cccc(NC(=O)Cn2c(=O)n(CCc3ccc(OC)c(OC)c3)c(=O)c3ccccc32)c1`, the survival is inactive: 102%.
Under `Cc1ccc(C(=O)CSc2nc(C)cc(SCC#N)n2)cc1` stands inactive: 80%.
Under `COc1ccc(CC(=O)NCc2ccc3c(c2)CCN3C(=O)c2ccc(C)cc2)cc1OC` stands inactive: 99%; under `O=C(Cn1ncc2c(=O)oc3ccccc3c21)NCc1ccccc1Cl`, inactive: 79%; under `Cc1ccc(CNC(=O)Cn2ccn(-c3ccc(C)c(C)c3)c(=O)c2=O)cc1`, inactive: 67%.
For `CN(C)c1ccc(CNC(=O)CN(C)S(=O)(=O)c2ccc3c(c2)c(=O)n(C)c(=O)n3C)cc1`, the survival was inactive: 97%.
Under `Cc1ccc(-n2nc3c(N4CCCC(C(=O)NCCc5ccccc5)C4)nnc(C)c3c2C)cc1` (centres undefined) stands inactive: 94%; under `COc1cccc(C(=O)Nc2c(C(=O)NC(C)(C)C)oc3ccccc23)c1`, inactive: 112%; under `Cc1ccc(CCNC(=O)Cn2c(-c3cccs3)cc3cc(F)ccc32)cc1`, inactive: 90%.
To `CCc1cccc2sc(N3CCN(C(=O)c4cc5ccccc5cc4OC)CC3)nc12` belongs inactive: 119%; to `CC1=C(C(=O)Nc2ccc(C)cc2C)C(c2ccc(Cl)cc2)n2nc(C(=O)OC(C)C)nc2N1` (centres undefined), inactive: 53%.
Under `O=C(Cn1cnc(S(=O)(=O)N2CCCC2)c1)Nc1ccc(OC(F)(F)F)cc1` stands inactive: 70%; under `CCc1ccc(NC(=O)c2cc3sc(Cl)cc3n2C)cc1`, inactive: 125%; under `COc1ccc(OC)c(NC(=O)Cn2cnc3c(oc4ccccc43)c2=O)c1`, inactive: 67%.
Consider `COc1ccc(CN2COc3ccc4c(-c5ccccc5)cc(=O)oc4c3C2)cc1`, for which the survival is inactive: 109%.
For the molecule `O=C1CCN(C(=O)c2ccccc2)C2CCCCC12` (centres undefined), the survival is inactive: 95%.
Under `Cc1cccc(N2CCN(C(=O)C3CCN(S(=O)(=O)c4cccs4)CC3)CC2)c1C` stands inactive: 61%.
To `O=C(Cn1ncc2c3ccccc3n(Cc3ccccc3F)c2c1=O)NCCc1ccc(Cl)cc1` belongs inactive: 50%; to `CCOC(=O)c1c(C)[nH]c(C)c1S(=O)(=O)N1CCCC(C(=O)Nc2ccc(OC)c(Cl)c2)C1` (centres undefined), inactive: 85%; to `COc1ccc(Oc2nc3c(c(=O)n(Cc4ccccc4Cl)c(=O)n3C)n2C)cc1`, inactive: 55%.
As to `COC(=O)c1c(SCC(=O)Nc2ccccc2OC)[nH]c2ccccc2c1=O`, the survival is inactive: 55%.
Under `Cc1cc2ccccc2n1-c1ccc(C(=O)N2CCC(C(=O)NCc3ccc(F)cc3)CC2)s1` stands active: 6%; under `O=C(C1CC1)N1CCc2cc(Br)cc(S(=O)(=O)N3CCN(c4ccccc4F)CC3)c21`, inactive: 69%; under `COc1ccc(CNC(=O)Cn2ccc3cc(S(=O)(=O)N4CCCCCC4)ccc32)c(OC)c1`, inactive: 134%.
With `Cc1ccc(NC(=O)C2CCN(c3nn4c(=O)cc(C)nc4s3)CC2)cc1`, the survival is inactive: 104%.
Under `Cc1c(Cl)cccc1NC(=O)CSc1cc(-c2ccccc2)ncn1` stands inactive: 52%; under `COc1cccc(NC(=O)c2ccc(CNS(=O)(=O)c3ccc4c(c3)C(C)(C)C(=O)N4C)cc2)c1`, inactive: 51%.
Consider `CC(C)n1c(=O)c2oc3ccccc3c2n(Cc2ccccc2F)c1=O`, for which the survival was inactive: 50%.
Take `Cc1ccc(-c2nnc(Nc3ccc(O)cc3)c3ccccc23)cc1S(=O)(=O)NCC1CCCO1` (centres undefined): the survival was inactive: 93%.
To `COc1ccc(Cn2ccc3nc(C)c(C(=O)Nc4ccc(OC)cc4OC)cc3c2=O)cc1` belongs active: 8%; to `CNC(=O)N(O)C1N(c2ccccc2)C(=S)SC1(C)C` (centres undefined), inactive: 79%; to `Cc1ccc(C)c(CN2C(=O)c3ccccc3S(=O)c3ccc(C(=O)NCc4ccco4)cc32)c1` (centres undefined), inactive: 72%.
For the molecule `Cc1ccc(NC(=O)Cn2c(=O)n(CCc3ccccc3)c(=O)c3c4c(sc32)CCCC4)cc1C`, the survival was inactive: 97%.
Under `Cc1ccc(NC(=O)Cn2cc(S(=O)(=O)NC(C)C)c(S(=O)(=O)NC(C)C)c2)cc1Cl` stands inactive: 95%.
For the molecule `COc1cccc(NC(=O)N2CCN(c3nnnn3-c3ccccc3)CC2)c1`, the survival was inactive: 86%.
Consider `CCc1ccc(NC(=O)Cn2c(=O)ccc3cc(S(=O)(=O)N4CCCC4)ccc32)cc1`, for which the survival is inactive: 144%.
As for `CCOC(=O)c1cccc(NC(=O)CCNS(=O)(=O)c2cccc3nonc23)c1`, the survival is active: 46%.
Regarding `CN(C)c1cccc(C(=O)Nc2ccc(-c3nc4ccccc4s3)cc2)c1`, the survival is inactive: 106%.
Consider `O=C(CSc1nc2c(oc3ccccc32)c(=O)[nH]1)Nc1cccc(Cl)c1`, for which the survival is active: 37%.
To `CC1=C(c2ccc(Cl)cc2)S(=O)(=O)NC1=NCc1ccc(C)cc1` belongs inactive: 86%; to `CC12CN3CC(C)(CN(C1)C3c1ccc(OCc3ccccc3)cc1)C2=O` (centres undefined), inactive: 89%.
Under `Cc1ccc(CCNC(=O)c2ccc(CSCc3ccc(C)cc3)o2)cc1` stands inactive: 55%; under `CCOC(=O)c1ccc(NC(=O)c2cc3c(n(-c4ccc(C)cc4)c2=O)CC(C)(C)CC3=O)cc1`, inactive: 153%; under `Cn1c(C(=O)N2CCC(C(=O)NCCc3ccc(S(N)(=O)=O)cc3)CC2)cc2sccc21`, inactive: 77%.
Under `COc1ccc(-c2nc3scc(CCNS(=O)(=O)c4cccc(C(C)=O)c4)n3n2)cc1` stands inactive: 84%; under `CCc1ccc(NC(=O)c2oc3c(c2C)-c2[nH]ncc2CC3)cc1`, inactive: 48%; under `CC1(C)C(=O)NCCN1C(=O)CSc1nccc(-c2ccccc2)n1`, inactive: 87%.
As to `CCc1ccc(NC(=O)c2ccc3c(c2)c(C)c(C)n3Cc2ccccc2)cc1`, the survival was inactive: 89%.
Turning to `CCOC(=O)c1cccc(Nc2cc(C)nc(C)n2)c1`, the survival was inactive: 65%.
To `Cc1cccc(-n2ncc3c(Nc4c(C)cc(C)cc4C)ncnc32)c1` belongs inactive: 74%; to `Cc1nnc2c3ccccc3nc(N3CCN(c4cccc(Cl)c4)CC3)n12`, inactive: 92%; to `CCOCCCn1c(=N)c(C(=O)NC2CCCC2)cc2c(=O)n3cccc(C)c3nc21`, inactive: 77%.
Turning to `Oc1ccc(Nc2nc(-c3ccc(Cl)cc3)nc3ccccc23)cc1`, the survival was active: 3%.
Turning to `Cc1noc(Cn2c(=O)c3ccccc3n(CC(=O)Nc3ccccc3C(F)(F)F)c2=O)n1`, the survival is inactive: 99%.
To `CC(C)n1c(N2CCN(Cc3ccc(Cl)cc3)CC2)nc2ccccc21` belongs inactive: 83%.
To `CCc1ccc(NC(=O)CN2C(=O)CCSc3ccc(S(=O)(=O)N4CCCC4)cc32)cc1` belongs inactive: 94%; to `COc1ccc(C(=O)c2cn(Cc3cccc(C)c3)c3cc4c(cc3c2=O)OCCO4)cc1OC`, inactive: 85%; to `Cc1nn2c(=O)cc(COC(=O)c3ccc(F)cc3)nc2s1`, inactive: 67%.
Under `Cc1ccc(N(C(=O)c2cccc(C)c2)S(=O)(=O)c2ccc(Cl)cc2)cc1` stands inactive: 81%.
`CCN(CC)CCNC(=O)Cn1ncc2c3ccccc3n(Cc3ccccc3C)c2c1=O`: the survival was inactive: 116%.
Under `COc1ccc(CCNC(=O)Cn2ccc3cc(S(=O)(=O)N4CCCCC4)ccc32)cc1OC` stands inactive: 88%.
With `CC1CN(CCC(=O)Nc2ccc3c(c2)OCO3)CC(C)O1` (centres undefined), the survival is inactive: 75%.
`COC(=O)c1ccccc1NC(=O)c1cc(=O)c2ccc(C)c(C)c2o1`: the survival was inactive: 72%.
For the molecule `Cn1nnnc1SCCCNCc1ccccc1OCc1ccccc1F`, the survival was inactive: 72%.
To `CC(=O)c1ccc(NC(=O)c2ccc(CN3C(=O)CCn4nc(C)cc43)cc2)cc1` belongs inactive: 76%.
Under `Cc1ccc(S(=O)(=O)Nc2ccc3c(c2)c(C(=O)OC(C)C)c(C)n3S(=O)(=O)c2ccc(C)cc2)cc1` stands inactive: 87%.
Under `COc1ccc(S(=O)(=O)NCCc2cn3ccsc3n2)cc1` stands inactive: 86%; under `O=C(CCC1N=C2c3ccccc3N=C(SCc3cccc(F)c3)N2C1=O)NCc1ccc(F)cc1` (centres undefined), inactive: 72%; under `Cc1ccc(CCNC(=O)CN2CCN(Cc3ccc(Cl)cc3)C2=O)cc1`, inactive: 67%.
For the molecule `O=S(=O)(Nc1ccc(Br)cc1)c1ccc2nc(-c3ccccc3)[nH]c2c1`, the survival was active: -1%.
Consider `CCc1ccc(NC(=O)Cn2nnc(C(=O)Nc3cc(C)ccc3OC)c2N)cc1`, for which the survival is inactive: 102%.
Turning to `O=C(Nc1ccccc1Br)N1CCN2CCCCC2C1` (centres undefined), the survival was inactive: 93%.
Under `CCc1c(C)nc2nncn2c1Nc1cccc(C)c1` stands inactive: 85%.
To `COc1ccc(-c2nc(SCC(=O)Nc3cccc(C(C)=O)c3)n[nH]2)cc1` belongs inactive: 128%; to `Fc1ccc(-c2noc3ncnc(N4CCCCC4)c23)cc1`, inactive: 102%; to `N#Cc1ccccc1S(=O)(=O)N1CCC(Oc2ccc(-n3cnnn3)cc2)CC1`, inactive: 82%.
To `COc1cccc(/C=C2/SC(=O)N(C)C2=O)c1O` belongs inactive: 83%; to `COc1ccc(Cc2nc3ccc(C(=O)NCc4cc(Br)ccc4OC)cc3o2)cc1`, inactive: 93%.
